Results as given in the supplement of paper PMC3334620.
Whole data set: some 33,000 sequences, median “E-score (-0.5 to 0.5)” near -0.056, cut for the highest 2% near 0.38. Some of the results follow.

target: Stb4 (UniProt P50104); assay: PBM E-score (8-mer binding enrichment) (E-score (-0.5 to 0.5)); higher = stronger / more preferred TF binding; most listed sequences are background and not binding sites; details: protein concentration: 200 nM; construct: GST-DNA-binding domain
Procedure: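 Universal 'all 10-mer' protein binding microarrays (Agilent AMADID 015681) probed with GST-tagged S. cerevisiae TFs (full-length or DBD) made by in vitro transcription/translation (PURExpress), about 100-200 nM. Bound TF was detected with fluorescent anti-GST. Each ungapped 8-mer (which stands for itself and its reverse complement) is scored by the PBM enrichment score (E-score), a modified Wilcoxon-Mann-Whitney statistic from -0.5 to +0.5, computed with the Universal PBM Analysis Suite. Scale: above 0.35 generally sequence-specific binding.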

Compared with CATAGCAG, GGTCGACA is higher in “PBM E-score” value: -0.259 for the first, -0.137 for the second.

Going from ACGAGCTC to GATACCAC, the “PBM E-score” value rises from 0.0375 to 0.137.

Going from TGTCTGAA to ACCATTCC, the “PBM E-score” value rises from 0.0284 to 0.198.

Compared with ACGGACAG, AAAGAACG is higher in “PBM E-score” value: -0.00252 for the first, 0.0191 for the second.

First: CTTTGTAA
Second: GAGCCGGA
The “PBM E-score” value of the first is lower: -0.207 for the first, 0.348 for the second.

Compared with AGCAAGGG, AACGTACC is higher in “PBM E-score” value: -0.0675 for the first, 0.0464 for the second.

First: AGTAACCG
Second: CGTTGGAA
The “PBM E-score” value of the first is higher: 0.222 for the first, 0.0043 for the second.

Going from AACATTGC to CCTCCCCA, the “PBM E-score” value falls from -0.0246 to -0.0256.

Going from AACTCAGC to CGTAGGGA, the “PBM E-score” value falls from -0.0108 to -0.103.

Going from CAATGAAA to GGGATTAC, the “PBM E-score” value rises from -0.161 to 0.0195.

Going from ATTCGGCC to GTCATCCA, the “PBM E-score” value falls from 0.271 to -0.173.

First: TATGCATA
Second: ACTTTCCA
The “PBM E-score” value of the first is lower: -0.212 for the first, 0.0477 for the second.

Compared with CATTTAGA, CTCAGAGA is lower in “PBM E-score” value: -0.00372 for the first, -0.109 for the second.

Going from TGGTTAAA to CGCACATC, the “PBM E-score” value rises from -0.0509 to 0.0014.

Compared with CTCTCGTC, AAGGAACA is lower in “PBM E-score” value: -0.0633 for the first, -0.101 for the second.

Going from AATGGCCG to ATATCGTG, the “PBM E-score” value falls from 0.171 to -0.0515.

Going from GAAGTGCC to ACAGAGGG, the “PBM E-score” value falls from 0.186 to -0.275.

Going from ATCAACCG to CCCCAGGC, the “PBM E-score” value falls from 0.197 to -0.0392.

First: ATTGTATC
Second: CTCACGGA
The “PBM E-score” value of the first is lower: -0.04 for the first, 0.211 for the second.

First: ACACTGCC
Second: ATTGGGAC
The “PBM E-score” value of the first is higher: 0.128 for the first, 0.0255 for the second.

Compared with GTGAATAA, AGGACCCT is lower in “PBM E-score” value: -0.153 for the first, -0.194 for the second.

Compared with AGACACAA, CGTAAAAA is higher in “PBM E-score” value: -0.161 for the first, 0.0222 for the second.

Going from ATGCTTTG to ATAATTAT, the “PBM E-score” value rises from -0.00495 to 0.0906.

Compared with ATAAATGC, CTTGTGCC is higher in “PBM E-score” value: -0.165 for the first, 0.00595 for the second.

Compared with ACCTTTCT, CCTCTACC is higher in “PBM E-score” value: -0.204 for the first, 0.0108 for the second.

Going from GTGTCCCA to AGGTCGAG, the “PBM E-score” value falls from 0.0944 to -0.349.

First: CAGCGAAC
Second: GGAGGCAA
The “PBM E-score” value of the first is lower: -0.168 for the first, -0.06 for the second.

Compared with GCGCAATA, ATCAGGGG is lower in “PBM E-score” value: -0.058 for the first, -0.228 for the second.

Compared with AGAAGGGC, GGCACATA is higher in “PBM E-score” value: -0.0787 for the first, 0.00319 for the second.

Going from GGGCTGAA to ATCGATTC, the “PBM E-score” value rises from -0.125 to 0.00194.

Compared with CGTTGCCA, CACACACG is higher in “PBM E-score” value: 0.0133 for the first, 0.11 for the second.

First: AGAGATAA
Second: AGTTTTTC
The “PBM E-score” value of the first is lower: -0.126 for the first, 0.149 for the second.

Compared with CGTGGACC, AACGCAGA is lower in “PBM E-score” value: 0.0263 for the first, -0.103 for the second.

Compared with ATCGGCTG, ACAAACCT is lower in “PBM E-score” value: 0.328 for the first, -0.0972 for the second.

Compared with AATTTCAA, GTAAGAAC is higher in “PBM E-score” value: -0.148 for the first, 0.0227 for the second.

Compared with CTCGTAAC, TATCACGA is lower in “PBM E-score” value: -0.107 for the first, -0.138 for the second.

Going from ATATAAGG to CCATCAGG, the “PBM E-score” value falls from 0.119 to -0.0466.

First: GTAATATA
Second: AACCTTCT
The “PBM E-score” value of the first is higher: -0.0436 for the first, -0.0819 for the second.

Compared with CGGGCACG, ACTGGGCA is lower in “PBM E-score” value: 0.172 for the first, -0.101 for the second.

Compared with ACGTCGCA, GTATGCTA is higher in “PBM E-score” value: -0.234 for the first, -0.106 for the second.

Going from CCGCTAGG to CACCACAA, the “PBM E-score” value falls from 0.00559 to -0.0566.

Compared with CCGCCGCA, CGTCCACA is lower in “PBM E-score” value: 0.0672 for the first, -0.0708 for the second.

First: CTCTCATC
Second: CCCGGATA
The “PBM E-score” value of the first is lower: -0.0925 for the first, 0.429 for the second.

First: CGGATCAA
Second: CGGACACC
The “PBM E-score” value of the first is higher: 0.401 for the first, 0.0845 for the second.

First: TAGTCTGA
Second: AGCGGAGC
The “PBM E-score” value of the first is lower: -0.23 for the first, 0.0851 for the second.

First: GGGCGTTA
Second: GTCCGACA
The “PBM E-score” value of the first is lower: -0.0608 for the first, 0.213 for the second.

Compared with GGCAAATA, CATCGGGA is higher in “PBM E-score” value: 0.208 for the first, 0.331 for the second.

First: ACACCGAC
Second: ATGATTTA
The “PBM E-score” value of the first is higher: 0.119 for the first, -0.111 for the second.

Going from GTCCCATA to CAGGAGGG, the “PBM E-score” value falls from -0.129 to -0.158.

First: GCAACCAA
Second: CTTCCCAC
The “PBM E-score” value of the first is lower: -0.0398 for the first, 0.0645 for the second.

Compared with ATCGACGG, TCAACGCA is lower in “PBM E-score” value: 0.0801 for the first, -0.189 for the second.

Compared with GACCCTCC, AGAACTAA is lower in “PBM E-score” value: 0.133 for the first, 0.0219 for the second.

Going from GGAACACC to GACGGTGA, the “PBM E-score” value falls from 0.146 to -0.18.

Going from CCATTCGA to CGTAGAGC, the “PBM E-score” value rises from -0.154 to -0.0218.

Compared with AAGATGTA, CATAATTA is higher in “PBM E-score” value: -0.299 for the first, -0.0337 for the second.

Going from CTCCGAGC to ACGGGTTC, the “PBM E-score” value falls from 0.428 to 0.0648.

Compared with ACCCTAAT, GGCTCTAC is higher in “PBM E-score” value: -0.335 for the first, 0.0648 for the second.

Going from TAAGACAA to AGTTTACA, the “PBM E-score” value falls from -0.0198 to -0.0886.

First: AGCTACAG
Second: AAATCCAT
The “PBM E-score” value of the first is higher: -0.0607 for the first, -0.0925 for the second.

First: ATGTGAAT
Second: CCAAGCGC
The “PBM E-score” value of the first is higher: 0.0167 for the first, -0.0525 for the second.

Going from AAAGAAGC to CCTCCTTC, the “PBM E-score” value rises from -0.0836 to 0.0231.

Going from ACAGCGCA to ATACGGAT, the “PBM E-score” value rises from -0.205 to 0.311.

First: ATCCGGCG
Second: GACGTGGA
The “PBM E-score” value of the first is higher: 0.368 for the first, -0.159 for the second.

Going from AAGTAGCC to GCGAATTA, the “PBM E-score” value falls from 0.133 to 0.0154.

Going from AGAGAGAC to AACATTTC, the “PBM E-score” value rises from -0.214 to -0.091.

Going from GAGCTTGC to ACAATTGG, the “PBM E-score” value falls from -0.0865 to -0.247.

First: CCGACTCC
Second: GGTAATCA
The “PBM E-score” value of the first is higher: 0.32 for the first, 0.129 for the second.

Compared with CTTGCGTC, TAAAAGGA is higher in “PBM E-score” value: -0.226 for the first, -0.0133 for the second.

Compared with CCGACCGA, CTACCCCC is lower in “PBM E-score” value: 0.363 for the first, -0.081 for the second.

Compared with GAGCCGCA, AGGTACCG is higher in “PBM E-score” value: 0.0237 for the first, 0.254 for the second.

First: CGAATTGC
Second: GGACTATA
The “PBM E-score” value of the first is higher: 0.114 for the first, -0.0847 for the second.

Going from GAATCTGC to TCGCGGAA, the “PBM E-score” value rises from 0.18 to 0.315.

First: GGACTGCC
Second: ATTAGCAC
The “PBM E-score” value of the first is lower: -0.0264 for the first, 0.00903 for the second.

Going from ATTCTTAA to CCGGGAAC, the “PBM E-score” value rises from -0.00821 to 0.381.

First: ATCGGGTC
Second: CAGCACTC
The “PBM E-score” value of the first is higher: 0.325 for the first, -0.236 for the second.

First: CATCGCCG
Second: ACCCCTTC
The “PBM E-score” value of the first is higher: 0.129 for the first, -0.0573 for the second.

Compared with CCACCGGC, GATTTTGC is lower in “PBM E-score” value: 0.121 for the first, -0.0616 for the second.

First: GCGACACC
Second: CGTCTTTA
The “PBM E-score” value of the first is higher: -0.0246 for the first, -0.0915 for the second.

Compared with CCCTTGCC, TCGTCAGA is higher in “PBM E-score” value: -0.146 for the first, -0.111 for the second.

Compared with GGCGAGGA, AGGATAGG is lower in “PBM E-score” value: -0.104 for the first, -0.239 for the second.

Going from GAGTTATA to CCCTTTTA, the “PBM E-score” value falls from -0.11 to -0.172.

Going from CGGACTAG to GCCATACC, the “PBM E-score” value falls from 0.196 to -0.0292.

Going from GCGAGAGA to CGTTAGAG, the “PBM E-score” value rises from -0.206 to 0.0598.

First: ATGTGGTA
Second: GAGGACAC
The “PBM E-score” value of the first is lower: 0.0112 for the first, 0.0478 for the second.

First: ACCTCCAC
Second: ACTGATCT
The “PBM E-score” value of the first is higher: 0.0218 for the first, -0.0326 for the second.

Going from GCGGCAAC to ACATGCGA, the “PBM E-score” value falls from 0.183 to -0.0931.
